From PubChem BioAssay AID686970 (National Center for Advancing Translational Sciences (NCATS), 2013)
Among all 360,000 compounds or so, about 6,000 (1.7%) were called active. Inconclusive results, whose numbers are uncertain, are shown with a selection of clear calls. The call rests on the fitted dose curve; in most records, active means well fitted cell-killing curve with a large enough effect; inconclusive means small, poorly fitted or top-dose-only effect, or effect the other way; inactive means flat fitted curve, though single readings scatter. Potencies of inconclusive entries are left out as doubtful fits.

Test: qHTS for induction of synthetic lethality in tumor cells producing 2HG: qHTS for the HT-1080-NT fibrosarcoma cell line;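 further: NT is the 2HG producing partner of a matched IDH1 knockdown line; nearly all actives have a fitted effect of over 55% in size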;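 on activity, negative = less viability: 0% = DMSO-treated cells and -100% = media-only wells without cells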
Details: HT-1080-NT fibrosarcoma viability, CellTiter-Glo ATP luminescence, 48 h; activity, negative = less viability: at 46.1 µM (top of the series) unless noted
Procedure, shortened: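 Viability of the 2HG-overproducing fibrosarcoma line after 48 hours of compound exposure at 37 degrees C was determined by luminescence with CellTiter-Glo, and concentration-effect curves were then fitted and categorized.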
Potency means the concentration at half of the fitted maximal effect; tags describe the fitted curve by direction and shape.

| Compound | Potency | activity, negative = less viability |
| --- | --- | --- |
| COc1ccc(-c2coc3c(C(=O)Nc4cccnc4)cccc23)c(C)c1 | inconclusive [cytotoxic, partial curve] | – |
| CCC(=O)Nc1cc(C(=O)OCc2ccc(C(=O)Oc3ccccc3)cc2)ccc1C | – | inactive: 3.63% |
| O=C(N/N=C1\CC(c2ccccc2)Oc2ccccc21)c1ccc(O)cc1 (stereo not drawn) | – | inactive: -14.1% |
| C=CCN1C(=O)/C(=C/c2ccc(OC(C)=O)c(OCC)c2[N+](=O)[O-])SC1=S | active: 9.2 µM | – |
| c1ccc(Oc2ccc(-c3cc(NCCc4cccnc4)n4nccc4n3)cc2)cc1 | inconclusive [rising, partial curve] | – |
| COC(=O)c1[nH]c2cccc(OC)c2c1NC(=O)CN1CC2(C)CC1CC(C)(C)C2 (stereo not drawn) | – | inactive: 5.46% |
| CC[C@H](CO)Oc1cc(NCc2cccc(N)c2)c2ncn(C(C)C)c2c1 | inconclusive [cytotoxic, single point] | – |
| CCOC(=O)c1c(NC(=O)CSc2nc3ccccc3s2)sc(C(C)=O)c1C | inconclusive [cytotoxic, partial curve] | – |
| Nc1ncnc2c1ncn2CCOc1ccccc1 | – | inactive: -0.713% |
| Cc1cc(C(=O)Nc2ccc3nc(C)sc3c2)c2ccccc2n1 | – | inactive: -27.3% |
| CN(C1(C)CCS(=O)(=O)C1)S(=O)(=O)c1cccc([N+](=O)[O-])c1 (stereo not drawn) | inconclusive [rising, single point] | – |
| Cc1cc2nc(SCCOC(=O)Nc3ccccc3)nc(C)c2cc1C | – | inactive: 5.44% |
| CC(C)=CCc1cc([C@@H]2COc3c(ccc4c3C=CC(C)(C)O4)C2)c(O)cc1O | inconclusive [cytotoxic, single point] | – |
| Cc1cccc2cc3c(N)c(C(=O)N4CCOCC4)sc3nc12 | inconclusive [cytotoxic, partial curve] | – |
| CCOC(=O)Nc1ccc2c(c1)N(C(=O)N1CCN(C)CC1)c1ccccc1CC2 | inconclusive [cytotoxic, single point] | – |
| Cc1ccc(O)c(NC(=O)c2cc(-c3ccccc3Cl)on2)c1 | inconclusive [cytotoxic, single point] | – |
| CC(=O)N1CCCc2cc(S(=O)(=O)NCc3ccc(C)cc3)ccc21 | – | inactive: 2.01% |
| CCc1ccc(-c2nc(CS(=O)CC(=O)NCCCN3CCC(C)CC3)c(C)o2)cc1 (stereo not drawn) | inconclusive [cytotoxic, single point] | – |
| CN(C)C(CNS(=O)(=O)c1ccc2ccccc2c1)c1ccccc1 (stereo not drawn) | – | inactive: -1.46% |
| NS(=O)(=O)c1ccc(NC(=S)Nc2ccc(C(=O)N3CCCCC3)cc2)cc1 | – | inactive: 2.46% |
| O=C(Nc1ncc(Cc2ccccc2Cl)s1)C1CCCO1 (stereo not drawn) | inconclusive [cytotoxic, single point] | – |
| CCOC(=O)N1CCN(c2c(NCc3ccc(F)cc3)c(=O)c2=O)CC1 | active: 5.17 µM | – |
| COc1cccc(CN2CC(C(=O)NCCn3ccc(C)n3)CCC2=O)c1 (stereo not drawn) | inconclusive [rising, partial curve, poor fit] | – |
| O=C(COc1ccc(S(=O)(=O)NC2CCCCC2)cc1)NC1CCCC1 | – | inactive: -1.23% |
| CCCCNC(=O)c1ccccc1SCC(=O)NC1CCCCCCC1 | – | inactive: 2.71% |

| Compound | Potency | activity, negative = less viability |
| --- | --- | --- |
| CN(C)CCOc1ccc2c(c1)C(=O)C(=Cc1ncc([N+](=O)[O-])n1C)C2 | active: 23.1 µM | – |
| CN(C)/C=C1/C=C(c2ccccc2)OC1=O | inconclusive [cytotoxic, single point] | – |
| COc1cc2c(C#N)c(N3CCOCC3)nc(N)c2c(N)n1 | inconclusive [cytotoxic, partial curve] | – |
| CCOC(=O)n1c(=O)n(Cc2ccc(OC)cc2)c2ccccc21 | active: 14.6 µM | – |
| COc1cccc(CNC(=S)Nc2ccc3c(c2)c(=O)n(C)n3C)c1 | inconclusive [rising, single point] | – |
| COc1ccc(F)c(CN(C)CC2CCCN(CCc3ccc(F)cc3)C2)c1 (stereo not drawn) | inconclusive [cytotoxic, single point] | – |
| O=C(CSc1nc2ccccc2[nH]1)Nc1ccc2c(c1)OCCO2 | – | inactive: -0.661% |
| COc1ccc(/C=N/NC(=O)CSc2ccccn2)cc1OC | – | inactive: 13.2% |
| Cc1cc(-c2ccc(C(C)C)c(S(=O)(=O)N3CCC(C)CC3)c2)on1 | inconclusive [cytotoxic, single point] | – |
| CCOc1ccc(C(=O)CC(C(=O)O)N2CCCCC2)cc1 (stereo not drawn) | inconclusive [cytotoxic, single point] | – |
| CCCn1nc([N+](=O)[O-])c(C(C#N)c2nc3ccccc3s2)c(Cl)c1=O (stereo not drawn) | active: 2.82 µM | – |
| Cc1cc(C)c(OCCCCCNCCO)c(C)c1 | inconclusive [cytotoxic, single point] | – |
| Cc1cccc(NS(=O)(=O)c2ccc(C(=O)NCC3(N4CCCCC4)CCCCC3)cc2)c1C | – | inactive: -17.7% |
| Oc1c(Br)cc(Br)c2cccnc12 | active: 16.4 µM | – |
| O=C(CN1CCN(S(=O)(=O)c2ccccc2)CC1)Nc1ccccc1C(=O)c1ccccc1 | – | inactive: -28.2% |
| CCN1CCN(Cc2ccc(NC(=O)c3ccc(C)c(NC(=O)c4nccnc4N)c3)cc2C(F)(F)F)CC1 | – | inconclusive: -52% |
| O=C(CCCN1C(=O)/C(=C\c2ccccc2)SC1=S)Nc1ccc(O)cc1 | active: 23.1 µM | – |
| Cc1c(C)c2c(OCC(=O)NCc3ccccn3)cc3c(c2oc1=O)CCC(C)(C)O3 | – | inactive: -5.31% |
| CCn1c(=N)n(CCOc2ccc(OC)cc2)c2ccccc21 | inconclusive [cytotoxic, single point] | – |
| Cc1occc1-c1nnc(SCC(=O)Nc2ccc(F)cc2)n1Cc1ccccc1 | active: 20.6 µM | – |
| Cc1cc(C(=O)NCCN2CCN(c3cccc(Cl)c3)CC2)n(-c2ccccc2)n1 | active: 8.2 µM | – |
| COc1cc2[nH]c(=S)nc(NCc3cccc(Cl)c3)c2cc1OC | inconclusive [cytotoxic, single point] | – |
| COc1cc(NC(=O)CN2C(=O)NC(C)(c3ccc4ccccc4c3)C2=O)c(C)cc1[N+](=O)[O-] (stereo not drawn) | inconclusive [cytotoxic, single point] | – |
| CCCCN(C)CC(O)Cn1cc(/C=C/C(=O)c2ccc(C)cc2)c2ccccc21 (stereo not drawn) | inconclusive [cytotoxic, single point] | – |
| Cc1ccc(C)c(N2CCN(C(=O)CC3Sc4ccccc4NC3=O)CC2)c1 (stereo not drawn) | inconclusive [cytotoxic, single point] | – |

| Compound | Potency | activity, negative = less viability |
| --- | --- | --- |
| c1ccc(OCCNc2ccn3nc(-c4cccs4)cc3n2)cc1 | inconclusive [cytotoxic, single point] | – |
| COC(=O)c1ccc(C)c(NS(=O)(=O)c2ccc3c(c2)OCCO3)c1 | active: 0.501 µM | – |
| COc1cccc(NC(=O)c2cnc[nH]2)c1 | – | inactive: 5.16% |
| O=[N+]([O-])c1cccc(-c2ccc(/C=N/NC(=S)NCc3ccco3)o2)c1 | inconclusive [cytotoxic, partial curve] | – |
| COc1ccc(-c2ccc(C(=O)NCc3ccc(N4CCN(C)CC4)cc3)c3occc23)c(C)c1 | active: 23.1 µM | – |
| Cc1ccc(C)c2[nH]c(=O)c(CN(Cc3ccc4c(c3)OCO4)Cc3nnnn3Cc3ccco3)cc12 | inconclusive [cytotoxic, partial curve] | – |
| COC(=O)c1cc(OC)c(OC)cc1NC(=O)c1ccc(C)o1 | – | inactive: 14% |
| CSc1sc(C(=O)NCC2CC2)c2c1S(=O)(=O)N(C)c1ccccc1-2 | inconclusive [rising, single point] | – |
| CCCCN1CCc2c(c3ccccc3n2Cc2ccccc2)C1 | inconclusive [cytotoxic, single point] | – |
| C=CCN(CC=C)CC(O)Cn1c2ccccc2c2ccccc21 (stereo not drawn) | inconclusive [cytotoxic, single point] | – |
| CN(C)c1cccc(NC(=O)C2Cc3c(-c4cccnc4)ccnc3O2)c1 (stereo not drawn) | – | inactive: 0.0721% |
| CCOc1cc(/C=N/N=C(N)N)ccc1OCc1ccc(Cl)cc1 | inconclusive [cytotoxic, single point] | – |
| COc1cccc(N2CCN(S(=O)(=O)c3ccc(-c4coc(C)n4)cc3)CC2)c1 | inconclusive [cytotoxic, single point] | – |
| C=CCn1c(O)c(N=NC(=S)Nc2ccccc2F)c2cc(S(=O)(=O)N3CCOCC3)ccc21 | inconclusive [cytotoxic, full curve, poor fit] | – |
| Cc1cc([N+](=O)[O-])ccc1NCc1cccc2ccccc12 | inconclusive [cytotoxic, single point] | – |
| CN(C)Cc1c(O)ccc2occ(C(=O)c3ccc(F)cc3)c12 | inconclusive [rising, single point] | – |
| Cn1c(=O)c2nc(-c3ccc(Cl)cc3Cl)oc2c2ccccc21 | inconclusive [rising, partial curve] | – |
| CC(C)(C)CC(C)(C)NC(=S)Nc1ccc(S(=O)(=O)N2CCOCC2)cc1 | inconclusive [cytotoxic, single point] | – |
| O=C(N/N=C/c1cc(Br)c(O)c(Br)c1O)c1cccnc1 | inconclusive [cytotoxic, partial curve] | – |
| O=S(=O)(c1ccc(Cl)cc1)c1nc(-c2ccccc2F)oc1NCCCN1CCOCC1 | – | inactive: 1.03% |
| CC(NC(=O)c1ccco1)c1ccc(-n2ccnc2)cc1 (stereo not drawn) | – | inactive: -15.7% |
| O=C(Cc1ccc(F)cc1)OCn1nnc2ccccc2c1=O | inconclusive [rising, single point] | – |
| O=C(OCCN1CCOCC1)C1(c2ccccc2)CCCCC1 | inconclusive [rising, partial curve, poor fit] | – |
